About 14,000 (4.5%) of roughly 310,000 compounds showed an effect of 50% or more. The effect is printed as a negative number. The list shows a part of the results.
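Note: peak tail current of the secondary pulse compared with the same well before compound.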

Sequence of human ether-à-go-go-related gene (hERG) potassium channel (Q12809 whole entry, looked up): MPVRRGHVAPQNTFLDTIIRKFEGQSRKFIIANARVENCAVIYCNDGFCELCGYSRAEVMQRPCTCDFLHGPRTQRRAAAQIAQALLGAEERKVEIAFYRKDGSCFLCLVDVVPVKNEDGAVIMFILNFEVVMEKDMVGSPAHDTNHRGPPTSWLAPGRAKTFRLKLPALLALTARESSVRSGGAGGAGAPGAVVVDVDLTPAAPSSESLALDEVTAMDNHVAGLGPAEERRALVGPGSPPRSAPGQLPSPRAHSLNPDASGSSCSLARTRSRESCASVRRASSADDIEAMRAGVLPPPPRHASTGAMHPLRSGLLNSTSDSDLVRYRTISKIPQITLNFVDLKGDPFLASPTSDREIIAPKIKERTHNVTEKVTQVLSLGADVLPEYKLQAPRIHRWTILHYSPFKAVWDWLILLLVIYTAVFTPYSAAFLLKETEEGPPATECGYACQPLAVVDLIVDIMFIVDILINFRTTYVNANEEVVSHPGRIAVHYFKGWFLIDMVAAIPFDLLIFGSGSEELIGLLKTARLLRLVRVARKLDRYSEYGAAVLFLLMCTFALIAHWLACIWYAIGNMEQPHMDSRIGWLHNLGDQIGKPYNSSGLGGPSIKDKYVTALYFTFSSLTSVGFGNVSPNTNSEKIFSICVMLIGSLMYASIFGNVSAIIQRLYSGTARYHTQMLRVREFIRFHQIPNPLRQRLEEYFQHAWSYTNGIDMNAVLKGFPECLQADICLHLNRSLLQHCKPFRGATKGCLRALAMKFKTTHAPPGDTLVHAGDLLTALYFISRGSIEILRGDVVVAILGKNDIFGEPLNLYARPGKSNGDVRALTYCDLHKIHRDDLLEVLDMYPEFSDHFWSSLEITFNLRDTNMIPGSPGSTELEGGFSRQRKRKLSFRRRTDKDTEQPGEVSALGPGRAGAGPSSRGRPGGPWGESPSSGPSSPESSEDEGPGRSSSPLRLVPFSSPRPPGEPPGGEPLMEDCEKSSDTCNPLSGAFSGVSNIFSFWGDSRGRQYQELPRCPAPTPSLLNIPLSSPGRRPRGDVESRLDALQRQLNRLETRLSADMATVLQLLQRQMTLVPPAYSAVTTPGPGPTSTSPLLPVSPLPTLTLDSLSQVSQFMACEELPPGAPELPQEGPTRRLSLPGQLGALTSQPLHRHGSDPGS

The experiment has as its target human ether-à-go-go-related gene (hERG) potassium channel (human, UniProt Q12809). The experiment can be described thus: primary screen, population patch clamp on CHO cells stably expressing hERG.
In the case of `CCC(NC(=O)CCl)c1ccc(C)cc1` (stereo not drawn), the “hERG current change (%, negative = inhibition) at 10uM” value came to 15.3%.
As for `CCC(=O)Nc1ccc(C(=O)c2ccccc2)cc1`, the figure is -9.96%.
As for `CC(C(=O)O)n1nc(-c2ccccc2)c2ccccc21` (stereo not drawn), the figure is -2.62%; as for `C=CCOC(=O)C1=C(C)NC(=O)NC1c1ccc2c(c1)OCO2` (stereo not drawn), -11.9%; as for `Cc1ccc(C(=O)Nc2c3c(nn2C(C)(C)C)CS(=O)(=O)C3)cc1[N+](=O)[O-]`, 10.7%.
As for `CC(=O)N1N=C2C3CCN(CC3)C2C1c1ccccc1` (stereo not drawn), the figure is 17%.
Regarding `CS(=O)(=O)O.c1ccc(-c2ccc3c(c2)c2c4n3CCN=C4CCC2)cc1`, the “hERG current change (%, negative = inhibition) at 10uM” value is on record as -61.5%.
To `CCOc1ccc(NC(=O)CCNS(=O)(=O)c2ccc3c(c2)c(=O)n(C)c(=O)n3C)cc1` belongs 17.2%.
As for `Cc1ccc(S(=O)(=O)NCC(=O)N2CCOCCOCCOCC2)cc1`, the figure is 1.35%.
To `CCc1ccccc1NC(=O)C1CCCC1` belongs 12.5%; to `COc1ccc(CCc2nnc(CCC(=O)NCc3ccc4ncccc4c3)o2)cc1`, -1.73%.
Take `NC(=O)c1ccccc1OCC(=O)N1CCCc2ccccc21`: the “hERG current change (%, negative = inhibition) at 10uM” value was found to be 14.5%.
Regarding `CCOc1cc(/C=C2/SC(=Nc3ccccc3)N(Cc3cccnc3)C2=O)ccc1OCC#N`, the “hERG current change (%, negative = inhibition) at 10uM” value turned out to be 7.86%.
As for `O=C(Cn1cnc2ccccc2c1=O)NC1CCS(=O)(=O)C1` (stereo not drawn), the figure is 8.42%; as for `COc1ccccc1CNC(=O)CN(C)Cc1ccc(SC)cc1`, -50.8%.
As for `Cc1ccc2c(c1)C=CC(C)N2C(=O)c1ccccc1` (stereo not drawn), the figure is -7.62%; as for `CC1C(c2ccccc2)=[N+]([O-])C2(CCCCC2)N1O` (stereo not drawn), 9.34%.
To `COC(=O)c1cc(C(=O)OCC(=O)NNC(=O)c2cccs2)cc([N+](=O)[O-])c1` belongs -10.9%.
`NC(=O)C1=C[C@@H](c2ccc3c(c2)OCO3)C[C@@H](OCCCCO)O1`: the “hERG current change (%, negative = inhibition) at 10uM” value was found to be 2.96%.
To `COc1ccc(NC(=O)Nc2cccc3ccccc23)cc1OC` belongs 10.4%; to `O=C(COc1ccccc1-c1ccccc1)N/N=C/c1cccnc1`, -52.8%.
As for `CC(C)Cn1c(N)c(C(=O)COC(=O)c2cccc(Cl)c2)c(=O)n(C)c1=O`, the figure is -6.08%; as for `COCC(C)NC(=O)Cc1ccc(F)cc1` (stereo not drawn), 22.6%.
As to `CCCN1Cc2cccc(C(=O)NC(C)c3cccs3)c2C1=O` (stereo not drawn), the “hERG current change (%, negative = inhibition) at 10uM” value was -12.7%.
To `Cc1ccccc1OC(C)c1nc(-c2ccccc2)no1` (stereo not drawn) belongs 0.522%; to `CCN1CCN(S(=O)(=O)c2ccc(Cl)c(C(=O)N(C)Cc3cccc(Cl)c3Cl)c2)CC1`, -61.3%.
For `Cc1nn(-c2ccccc2)c(C)c1/C=N/NC(=O)c1cccs1`, the “hERG current change (%, negative = inhibition) at 10uM” value is listed as -24.9%.
To `CC(=O)N1c2ccc(S(=O)(=O)N3CCCC(C(=O)NCc4ccccc4)C3)cc2CC1C` (stereo not drawn) belongs 13.7%; to `C(=N\n1cnnc1)/c1cccn1-c1ccccc1`, -17.5%; to `O=C(/C=C/c1cccc([N+](=O)[O-])c1)N1CCN(c2ccccn2)CC1`, -41.2%.
As for `COC(=O)C1=CN(c2ccc(Cl)cc2)C=C(C(=O)OC)C1c1ccc([N+](=O)[O-])cc1`, the figure is 16.2%; as for `COc1cccc(C(=O)NNC(=O)C(=O)N2CCCCC2)c1`, 23.6%; as for `CC(=O)c1sc(NC(=O)CN2C(=O)NC3(CCCC3)C2=O)nc1-c1ccccc1`, -1.43%.
To `CCCC(=O)Oc1c(S(=O)(=O)c2ccc(C)cc2)c(C)nn1C(C)(C)C` belongs -4.08%.
With `COc1ccc(OC)c(/C=C/C(=O)N2C(=O)c3cccc(N)c3C2=O)c1`, the “hERG current change (%, negative = inhibition) at 10uM” value turned out to be 6.52%.
For the compound `COc1ccc(-n2c(C)cc(C(=O)CSc3ccc(NC(C)=O)cc3)c2C)cc1`, the “hERG current change (%, negative = inhibition) at 10uM” value is 16.1%.
To `CC1CCCC(C)N1C(=O)CSc1nc2ccccc2s1` (stereo not drawn) belongs -13.3%; to `Cn1c(=O)oc2cc(S(=O)(=O)N3CCC(N4CCCCC4)CC3)ccc21`, 3.47%; to `CCOCc1cnc(C)nc1NCC(=O)c1c(C)[nH]c2ccccc12`, 8.49%.
Take `CC(C)C(O)(c1ccccc1)C(CN1CCOCC1)c1ccccc1.Cl` (stereo not drawn): the “hERG current change (%, negative = inhibition) at 10uM” value is listed as -1.52%.
To `CCOC(=O)c1ccccc1NC(=O)COC(=O)C(CC(C)C)NC(N)=O` (stereo not drawn) belongs 4.62%; to `Cc1cc(Cl)ccc1NC(=S)NCCN1CCOCC1`, -0.212%; to `O=C(NCc1cccnc1)c1ccc(COc2ccc(Cl)cc2Cl)o1`, -18.1%.
Consider `COc1cc(CO)ccc1OCC(=O)Nc1ccc(Br)cc1`, for which the “hERG current change (%, negative = inhibition) at 10uM” value was -11.2%.
As for `COc1ccc(Cl)cc1C(=O)NNC(=S)NC1CCCCC1`, the figure is 20.2%.

Source of the values: publication PMC4336329 (PLoS ONE, 2015).
